For 15 compounds, activity change, negative = inhibition results are on record in PubChem BioAssay AID1745853 (National Center for Advancing Translational Sciences (NCATS), 2022).

Holding throughout (experiment): Primary Screen for Target Class Profiling of Small Molecule Inhibitors of Methyltransferases
For test [1], the target named is Glycine N-methyltransferase (Homo sapiens) (UniProt Q14749). The conditions noted are these: purified enzyme, MTase-Glo SAH luminescence; measured here: GNMT inhibition; at 40 µM; stronger effect = lower value. The source says:
(§1) PI: Matthew D. Hall Ph.D. and Quinlin M. Hanson Ph.D.
(§2) National Center for Advancing Translational Sciences (NCATS)
(§3) National Institute of Health (NIH), Rockville, MD
(§4) Target class profiling (TCP) is a chemical biology approach amenable to investigating understudied biological targets. TCP is achieved by developing a generalizable assay platform and applying it to screen a curated set of compound libraries against representative members of a target class. Small molecule methyltransferases (SMMTase) are a subclass of methyltransferase that act on metabolites to modulate signaling pathways, metabolize xenobiotics, or balance the available methyl pool. We screened four curated libraries totaling 27,574 unique compounds against the SMMTases nicotinamide N-methyltransferase (NNMT), phenylethanolamine N-methyltransferase (PNMT), histamine N-methyltransferase (HNMT), glycine N-methyltransferase (GNMT), catechol O-methyltransferase (COMT), and guanidinoacetate N-methyltransferase (GAMT). The data generated by this TCP can be leveraged for informed tool molecule development. For example, in the associated publication we identified a chemotype of HNMT-selective inhibitors. Additionally, we identified a putative SMMTase-selective inhibitor with potential as a tool molecule for studying broader methyltransferase biology.
(§5) High-through put screening assays were developed at the National Center for Advancing Translational Science (NCATS) for the enzymes NNMT, PNMT, HNMT, GNMT, COMT, and GAMT. Enzymatic activity was measured as a function of SAM cofactor conversion using the MTase Glo kit (Promega) for all enzymes. All assays were performed in 1536-well format with substrates and SAM concentrations at KM values. Enzyme concentration and assay timing were optimized for 10-20% SAM conversion. Initial screening of 27,574 compounds was done as single-point assays using the highest compound concentration (40 uM). […] These compounds were replated in 11-point dose response and assayed against NNMT, PNMT, HNMT, GNMT, COMT, GAMT, and a counter-assay. The IC50 and efficacy (maximal response) values were determined for each dose-response curve. These values are also accounted for in the area under the curve (AUC) values.
(§6) PROTOCOL TABLE (as described by Inglese J, Shamu CE and Guy RK. 2007)
(§7) SEQUENCE No. (e.g., 1, 2, 3, etc.); […] (e.g., Cells, Incubation, Reagent, etc.); VALUE; DESCRIPTION.
(§8) 1; Reagent; 2 uL; SMMTase Enzyme (2x) in reaction buffer, columns 1- 48.
(§9) 2; Reagent; 1 uL; SAM (4x) in reaction buffer, columns 1-48.
(§10) 3; Controls; 23 nL; DMSO in column 4; sinefungin in DMSO (0 uM - 40 uM) in 7-point 1:2 dilution series (n = 2) in column 2.
(§11) 4; Compounds; 23 nL; Columns 5-48.
(§12) 5; Reagent; 1 uL; Substrate (4x) in reaction buffer, columns 2-48.
(§13) 6; Time; 20-30 min; Incubation.
(§14) 7; Reagent; 1 uL; MTase-Glo reagent (5X), columns 1-48.
(§15) 8; Time; 30 min; Incubation.
(§16) 9; Reagent; 5 uL; MTase-Glo Detection reagent, columns 1-48.
(§17) 10; Time; 30 min; Incubation, luminescence evolution.
(§18) 11; Detection; Luminescence; ViewLux uHTS Microplate Imager (PerkinElmer).
(§19) NOTES (numbers refer to Sequence numbers above)
(§20) 1, 2, 5. White Medium Binding Greiner 1536-well plates (Cat #789175-F, Greiner Bio-One, Monroe, NC); Reaction buffer: 50 mM Tris, pH 8.0, 3 mM MgCl2, 1 mM EDTA, 50 mM NaCl, 1 mM DTT, and 0.1 mg/mL BSA. Evaporation was prevented by covering assay plates with metal lids containing holes to allow gas diffusion.
(§21) 1. Six SMMTase were profiled: HNMT, GNMT, PNMT, COMT, NNMT, GAMT
(§22) 5. The corresponding substrate was used for each enzyme: HNMT - 5.3 uM Histamine; GNMT - >500 uM Glycine; PNMT - 16.2 uM Norephinephrine; COMT - 13.7 uM Norephinephrine; NNMT - 3.8 uM Nicotinamide; GAMT - 2.5 uM Guanidinoacetate.6, 8, 10. Room temperature
(§23) 6. Final reaction conditions: 10 nM COMT, 5 uM SAM, 15 uM norepinephrine, 50 mM Tris, pH 8.0, 3 mM MgCl2, 1 mM EDTA, 50 mM NaCl, 1 mM DTT, and 0.1 mg/mL BSA; refer to tables 2 and S1 for specific timing.
8. […]

Test [2] deals with Guanidinoacetate N-methyltransferase (Homo sapiens) (UniProt Q14353). The following applies: purified enzyme, MTase-Glo SAH luminescence; measured here: GAMT inhibition; at 40 µM; stronger effect = lower value.
Text: as §1, §2, §3, §4, §5, §6, §7, §8, §9, §10, §11, §12, §13, §14, §15, §16, §17, §18, §19, §20, §21, §22, §23
8. […]

Test [3] deals with Histamine N-methyltransferase (Homo sapiens) (UniProt P50135). The conditions noted are these: purified enzyme, MTase-Glo SAH luminescence; measured here: HNMT inhibition; at 40 µM; stronger effect = lower value.
Text: as §1, §2, §3, §4, §5, §6, §7, §8, §9, §10, §11, §12, §13, §14, §15, §16, §17, §18, §19, §20, §21, §22, §23
8. […]

For test [4], the target named is Nicotinamide N-methyltransferase (Homo sapiens) (UniProt P40261). The following applies: purified enzyme, MTase-Glo SAH luminescence; measured here: NNMT inhibition; at 40 µM; stronger effect = lower value.
Text: as §1, §2, §3, §4, §5, §6, §7, §8, §9, §10, §11, §12, §13, §14, §15, §16, §17, §18, §19, §20, §21, §22, §23
8. […]

Test [5] concerns the target Phenylethanolamine N-methyltransferase (Homo sapiens) (UniProt P11086). The following applies: purified enzyme, MTase-Glo SAH luminescence; measured here: PNMT inhibition; at 40 µM; stronger effect = lower value.
Text: as §1, §2, §3, §4, §5, §6, §7, §8, §9, §10, §11, §12, §13, §14, §15, §16, §17, §18, §19, §20, §21, §22, §23
8. […]

The other results are listed elsewhere or left out. Shown are side measurements of this screen, not its main read-out; they come without a call.
% is set by controls: 0 for no effect and ±100 for the full control effect.

In the case of `Cc1cccc(N2CCN(C(=O)CCc3nnc4n(Cc5ccccc5)c(=O)c5ccccc5n34)CC2)c1C`, the activity change, negative = inhibition in test [1] is 0.095%; in test [2], 0.813%; in test [3], 7.73%; in test [4], 5.88%; in test [5], 0.737%.
For `CSc1ccc(CCN2C(=O)Cn3cccc3C2C(=O)NC2CCC(C)CC2)cc1` (stereo not given) the same measures were -0.89%, 4.1%, -2.69%, -9.53% and -2.08%.
For the compound `CNC(=S)NS(=O)(=O)c1cc(CCNC(=O)c2cc(Cl)ccc2OC)ccc1OC`, the activity change, negative = inhibition in test [1] was -1.01%; in test [2] it was -7.97%; in test [3], -0.497%; in test [4], -19.7%; in test [5] it was -7.05%.
For `CCCn1c(=O)c2cc(F)ccc2n2c(SCC(=O)Nc3cc(Cl)ccc3OC)nnc12` the same measures were -3.06%, 0%, 5.97%, 0.481% and -1.39%.
Taken in the same sequence, the figures for `O=C1CCCCC(C(=O)NC2CCCC2)N1` (stereo not given) were -1.55%, -1.82%, 2.26%, -3.6% and -0.728%.
As for `CC(C)CCNC(=O)C1(C)Cn2c(cc3ccccc32)C(=O)N1Cc1cccnc1` (stereo not given), the activity change, negative = inhibition in test [1] was determined as 8.55%; in test [2], 4.63%; in test [3], 10.8%; in test [4], 13.7%; in test [5] it was 4.41%.
As to `CCCN1C(=O)c2c(C(=O)NCc3ccc(OC)cc3)ncn2CC1(C)C(=O)NCc1ccccc1` (stereo not given), the activity change, negative = inhibition in test [1] is -3.58%; in test [2], 2.14%; in test [3], 4.86%; in test [4], -0.122%; in test [5], 1.79%.
Regarding `Cc1ccc(-c2n[nH]n3c2nc(=O)c2ccc(C(=O)NC4CCCCC4)cc23)cc1`, the activity change, negative = inhibition in test [1] was -8.33%; in test [2], -3.13%; in test [3] it was 1.88%; in test [4], 4.12%; in test [5] it was -2.47%.
For `COCC[C@]1(O)CCN(C(=O)c2cccc(OC)c2C)C[C@H]1C` the same measures were -3.94%, -0.231%, -1.06%, -2.18% and 1.81%.
Taken in the same sequence, the figures for `O=C(NC[C@H]1O[C@@H](CO)[C@@H](O)[C@H]1N1CCN(c2ccccn2)CC1)Nc1ccccc1` were -3%, -4.26%, 0.763%, -9.9% and -8.61%.
Regarding `O=C(Cn1ccc2cc(S(=O)(=O)N3CCCC3)ccc21)NC1CCCc2ccccc21` (stereo not given), the activity change, negative = inhibition in test [1] is 1.92%; in test [2], 0%; in test [3] it was -1.09%; in test [4], -1.85%; in test [5], -1.61%.
As for `C[C@H](C(=O)N1CCOCC1)C1CC[C@@]2(C)Cc3sc(-c4ccccc4)nc3[C@@H](C)[C@@H]2[C@H]1O` (stereo not given in full), the activity change, negative = inhibition in test [1] was -2.44%; in test [2], -2.12%; in test [3], 1.04%; in test [4], -2.75%; in test [5], -0.525%.
On to `CN(Cc1cccc(-c2nn[nH]n2)c1)C(=O)c1ccc(C2CCCNC2)cc1` (stereo not given), for which the activity change, negative = inhibition in test [1] is -9.03%; in test [2], -7.76%; in test [3], -34.8%; in test [4], -16.1%; in test [5] it was -20.4%.
Take `O=C(NC1CCCN(C2CCCCCC2)C1)c1ccccc1C(F)(F)F` (stereo not given): the activity change, negative = inhibition in test [1] is -1.77%; in test [2], -5.83%; in test [3], -1.32%; in test [4] it was -6.86%; in test [5] it was -1.82%.
With `COCC(=O)NC[C@H]1CCN(Cc2cccn2C)C[C@H]1N(C)C`, the activity change, negative = inhibition in test [1] is -4.92%; in test [2], -15.3%; in test [3] it was -4.72%; in test [4] it was -19.5%; in test [5], -13.9%.
